In patent US20140314780A1, “Compositions Using Antibodies Directed to GPNMB and Uses Thereof” (Celldex Therapeutics, Inc., priority 2008, published 2014):

Biological target: T1, GPNMB (Homo sapiens, UniProt Q14956)
T1 construct: V5His; made in house
T1 sequence (Q14956 23-492): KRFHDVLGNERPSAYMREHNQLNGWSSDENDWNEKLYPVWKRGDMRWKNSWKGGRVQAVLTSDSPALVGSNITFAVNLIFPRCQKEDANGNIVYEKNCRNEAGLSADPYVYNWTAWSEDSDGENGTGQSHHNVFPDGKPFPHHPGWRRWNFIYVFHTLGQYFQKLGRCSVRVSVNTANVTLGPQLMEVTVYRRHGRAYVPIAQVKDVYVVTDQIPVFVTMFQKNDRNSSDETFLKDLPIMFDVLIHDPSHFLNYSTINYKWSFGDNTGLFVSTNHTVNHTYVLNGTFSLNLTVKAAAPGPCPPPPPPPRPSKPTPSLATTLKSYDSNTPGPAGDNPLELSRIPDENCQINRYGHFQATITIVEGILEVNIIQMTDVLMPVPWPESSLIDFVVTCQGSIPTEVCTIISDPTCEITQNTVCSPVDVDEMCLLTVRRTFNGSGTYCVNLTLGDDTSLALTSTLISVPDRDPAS
Test: Epitope binning of anti-GPNMB antibodies (competitive binding)
Conditions: six anti-GPNMB antibodies, three bins
Description: Certain antibodies, described herein were binned in accordance with the protocol described in U.S. Patent Application Publication No. 20030157730. […] Competitive binding by antibodies from […] supports antibody specificity for similar or adjacent epitopes. Non competitive binding supports antibody specificity for unique epitopes.
Three bins were created to further test the binding of six anti-GPNMB antibodies. Bin 1 included GPNMB antibodies (1.2.1), (1.10.1), and (2.22.1). Bin 2 included GPNMB antibodies (2.3.1) and (1.15.1), and Bin 3 included GPNMB antibody (2.10.1). The results of the binning assays are provided below in Tables 4 and 5.

B1: Mab2.3.1: human anti-GPNMB antibody; VH SEQ ID NO: 200, VL SEQ ID NO: 209 (antibody, listed as Homo sapiens, V domains shown)
VH: [no letters for about 100 residues]DFFGSGSLLYFDYWGQGTLVTVSSA
VL: DIVMTQTPLSLSVTPGQPASISCKSSQSLLHSGGKTYLYWYLQRPGQPPQLLIYEVSNRFSGVPDRFSGSGSGTDFTLKISRVEAEDVGVYYCMQSIHLPLTFGGGTKVEIKR
- Epitope bin: Bin 2
